“Also recorded” adds a separate entry of the source. Where two headings read alike, the source gives them in different places.

Series [1] deals with H460 cells. In words: Lactate dehydrogenase (LDH) release assay, H460. Particulars: read-out: LC50 of LDH; H460, 72 hours, reaction DAR 10:1. As for the experimental part: (§1) FIG. 6 depicts the effects of linker and payload on cytotoxicity to cancer cell H460. […] The Log of the antibody concentration in nM is shown on the X axis.
HAAH is highly expressed on the surface of cancer cells, but not on normal adult human cells. The specificity of SNS622-MC-DM1 was examined using human lung carcinoma cell line H460 and LONZA NHLF, a normal human lung fibroblasts (NHLF) cell line. Both cell lines were cultured in HG-DMEM (ThermoFisher Scientific Catalog No. 11965-092) supplemented with 20 mM HEPES (4-(2-hydroxyethyl)-1-piperazineethanesulfonic acid), 4 mM L-glutamine, 1 mM sodium pyruvate, 1× non-essential amino acids, 50 μg/ml gentamicin and 10% fetal bovine serum (FBS). H460 and NHLF cells were seeded into 96-well plates at 5,000 cells per well, following a 2-day FBS deprivation, and released by culture in complete culture medium containing 10% FBS. The cells were allowed to grow for 2 days after releasing, and then treated with or without 32 nM SNS622-MC-DM1. By 72 hours post treatment, cell death was determined by observing cell morphology using a phase contrast microscope at 150×.
The cell death was also quantified using lactate dehydrogenase (LDH) releasing assay. For the LDH assay, a mixture of a 35 μl aliquot of culture medium and 17.5 μl of substrate, enzyme, and dye solutions (Sigma, St. Louis, Mo., U.S.A.) was incubated at room temperature for 30 minutes, and absorbance was measured at 490 nm using a plate reader (ELx805; BioTek, Winooski, Vt., U.S.A.).

Series [2] has as its system MOLM-14 cells. In words: MTS cell viability assay, MOLM-14. In kind it is cell-based, human. To be noted: MOLM-14, 24 hours; for IC50: read-out: IC50, MOLM-14 growth. As for the experimental part:
Human H460 cells were obtained from the American Type Culture Collection (ATCC; Manassas, Va., U.S.A.). […] Human MOLM-14 cells were obtained from Dr. Ashkan Emadi at University of Maryland (Baltimore. Md., U.S.A.). The MOLM-14 cells were seeded at a density of 5000 cells/well in 96-well plates and cultured in RPMI 1640 with 20% heat-inactivated FBS. The H460 and MOLM-14 cells were treated with naked antibodies or ADCs for 24 hours, starting at the time of cell seeding. By the end of experiment, the cell viability for both cell lines was determined quantitatively using CELL TITER 96 AQUOUS ONE SOLUTION cell proliferation assay, a colorimetric method for determining the number of viable cells (MTS; Promega, Madison. Wis., U.S.A.; Catalog No. G3582).

For series [3], the system named is H460 cells. In words: MTS cell viability assay, H460. To be noted: for Effect on H460 cell viability / growth (MTS) / EC50: H460, 24 hours; for EC50: read-out: EC50, killing of H460 cells (MTS). In kind it is cell-based, human. As for the experimental part: Human H460 cells were obtained from the American Type Culture Collection (ATCC; Manassas, Va., U.S.A.). The H460 cells were seeded at a density of 5,000 cells/well in 96-well plates and cultured in HG-DMEM (ThermoFisher Scientific, Waltham. Mass., U.S.A.; Catalog No. 11965-092) supplemented with 20 mM HEPES, 4 mM L-glutamine, 1 mM sodium pyruvate, 1× non-essential amino acids, 50 μg/ml gentamicin, and 10% fetal bovine serum (FBS)). Human MOLM-14 cells were obtained from Dr. Ashkan Emadi at University of Maryland (Baltimore. Md., U.S.A.). The MOLM-14 cells were seeded at a density of 5000 cells/well in 96-well plates and cultured in RPMI 1640 with 20% heat-inactivated FBS. The H460 and MOLM-14 cells were treated with naked antibodies or ADCs for 24 hours, starting at the time of cell seeding. By the end of experiment, the cell viability for both cell lines was determined quantitatively using CELL TITER 96 AQUOUS ONE SOLUTION cell proliferation assay, a colorimetric method for determining the number of viable cells (MTS; Promega, Madison. Wis., U.S.A.; Catalog No. G3582).
as §1
The bioactivities of these SNS622 ADCs were examined using H460 cells. The cells were treated for 48 hours with these SNS622-MC-DM1s, or with SNS622 as control. Cell viability was evaluated at the end of the experiment using an MTS assay.
SNS622-MC-vc-PAB-DM1 and SNS622-MC-MMAE were also synthesized under different initial DAR ratios of 2.5:1, 5:1 and 10:1 at fixed pH8. The 460 cells were treated for 72 hours with ADCs SNS622-MC-vc-PAB-DM1 at with OAR 2.5:1; 5:1; and 10:1, or SNS622-MC-MMAE at with DAR 2.5:1; 5:1; and 10:1. The cell viability and cell death were separately quantified with […] and lactate dehydrogenase (LDH) release assays. FIG. 8A depicts a graph of the MTA quantification results expressed as percentage of untreated control. FIG. 8B depicts a graph of the LDH assay results expressed as percentage of 512 nM DM1-elicited maximal LDH release. The Log of the antibody concentration in nM is shown on the X axis.
(In general: Formazan colour is commonly taken as a measure of viable cells.)

B1: SNS622-MC-vc-PAB-MMAE (conjugate)
heavy: QVQLQQSGPGLVKPSQTLSLTCAISGDSVSSNSAAWNWIRQSPSRGLEWLGRTYYRSKWYNDYAVSVKSRITINPDTSKNQFSLQLNSVTPEDTAVYYCARTGYSSSWVVNFDYWGQGTLVTVSSASTKGPSVFPLAPSSKSTSGGTAALGCLVKDYFPEPVTVSWNSGALTSGVHTFPAVLQSSGLYSLSSVVTVPSSSLGTQTYICNVNHKPSNTKVDKRV[human IgG1 Fc left out]
light: QPVLTQSPSASGTPGQRVTISCSGSSSNIGSNYVYWYQQLPGTAPKLLIYKNNQRPSGVPDRFSGSKSGTAASLAISGLQSEDEADYYCAAWDDSLRGYVFGTGTKLTVLGQPKAAPSVTLFPPSSEELQANKATLVCLISDFYPGAVTVAWKADSSPVKAGVETTTPSKQSNNKYAASSYLSLTPEQWKSHRSYSCQVTHEGSTVEKTVAPTECS
modifications: MC-vc-PAB-MMAE on cysteine thiols of reduced disulfide bonds, positions not given; reaction DAR 10:1, final DAR 6.31; MC-vc-PAB-MMAE on cysteine thiols of reduced disulfide bonds, positions not state
As for B1, the CC50 in series [1] is 0.22 nM. In series [2], the “Effect on MOLM-14 cell viability / growth (MTS)” value is “inhibit in vitro cell growth of both H460 and MOLM-14”; the half-maximal inhibitory concentration (IC50) was around 50 nM. Besides, in series [3], the “Effect on H460 cell viability / growth (MTS)” value was “decreased the H460 cell viability; also recorded: inhibit in vitro cell growth of both H460 and MOLM-14”; the EC50 was around 60 nM. For the same molecule, the IC50 in series [3] (H460, 72 hours, reaction DAR 10:1, read-out: IC50 of MTS) amounted to 77 nM. Also, the IC50 in series [3] (stated for both cancer cell lines (H460 and MOLM-14), read-out: IC50, suppressing cell growth) turned out to be 60 nM.

B2: SNS622-MC-PEG4-vc-PAB-DMEA-DUO: SNS622 conjugated to duocarmycin (DUO) by a combined linker of MC, PEG4, vc-PAB and DMEA (conjugate)
heavy: QVQLQQSGPGLVKPSQTLSLTCAISGDSVSSNSAAWNWIRQSPSRGLEWLGRTYYRSKWYNDYAVSVKSRITINPDTSKNQFSLQLNSVTPEDTAVYYCARTGYSSSWVVNFDYWGQGTLVTVSSASTKGPSVFPLAPSSKSTSGGTAALGCLVKDYFPEPVTVSWNSGALTSGVHTFPAVLQSSGLYSLSSVVTVPSSSLGTQTYICNVNHKPSNTKVDKRV[human IgG1 Fc left out]
light: QPVLTQSPSASGTPGQRVTISCSGSSSNIGSNYVYWYQQLPGTAPKLLIYKNNQRPSGVPDRFSGSKSGTAASLAISGLQSEDEADYYCAAWDDSLRGYVFGTGTKLTVLGQPKAAPSVTLFPPSSEELQANKATLVCLISDFYPGAVTVAWKADSSPVKAGVETTTPSKQSNNKYAASSYLSLTPEQWKSHRSYSCQVTHEGSTVEKTVAPTECS
modifications: MC-PEG4-vc-PAB-DMEA-duocarmycin on cysteine thiols of reduced disulfide bonds, positions not given; reaction DAR 2.2:1, final DAR 1.92:1; MC-PEG4-vc-PAB-DMEA-duocarmycin on cysteine thiols of reduced
In the case of B2, in series [2], the “Effect on MOLM-14 cell viability / growth (MTS)” value was “inhibit in vitro cell growth of both H460 and MOLM-14”; the IC50 was around 60 nM. Besides, in series [3], the “Effect on H460 cell viability / growth (MTS)” value is “decreased the H460 cell viability; also recorded: inhibit in vitro cell growth of both H460 and MOLM-14”; the concentration for a half-maximal effect (EC50) was around 300 nM.

B3: SNS622-MC-vc-PAB-DM1 (conjugate)
heavy: QVQLQQSGPGLVKPSQTLSLTCAISGDSVSSNSAAWNWIRQSPSRGLEWLGRTYYRSKWYNDYAVSVKSRITINPDTSKNQFSLQLNSVTPEDTAVYYCARTGYSSSWVVNFDYWGQGTLVTVSSASTKGPSVFPLAPSSKSTSGGTAALGCLVKDYFPEPVTVSWNSGALTSGVHTFPAVLQSSGLYSLSSVVTVPSSSLGTQTYICNVNHKPSNTKVDKRV[human IgG1 Fc left out]
light: QPVLTQSPSASGTPGQRVTISCSGSSSNIGSNYVYWYQQLPGTAPKLLIYKNNQRPSGVPDRFSGSKSGTAASLAISGLQSEDEADYYCAAWDDSLRGYVFGTGTKLTVLGQPKAAPSVTLFPPSSEELQANKATLVCLISDFYPGAVTVAWKADSSPVKAGVETTTPSKQSNNKYAASSYLSLTPEQWKSHRSYSCQVTHEGSTVEKTVAPTECS
modifications: MC-vc-PAB-DM1 on cysteine thiols of reduced disulfide bonds, positions not given; reaction DAR 10:1 gives final DAR 6.56 (also made at 2.5:1 and 5:1); MC-vc-PAB-DM1 on cysteine thiols of reduced disu
With B3, in series [1], the CC50 was 55 nM.

B4: SNS622-MC-MMAE (conjugate)
heavy: QVQLQQSGPGLVKPSQTLSLTCAISGDSVSSNSAAWNWIRQSPSRGLEWLGRTYYRSKWYNDYAVSVKSRITINPDTSKNQFSLQLNSVTPEDTAVYYCARTGYSSSWVVNFDYWGQGTLVTVSSASTKGPSVFPLAPSSKSTSGGTAALGCLVKDYFPEPVTVSWNSGALTSGVHTFPAVLQSSGLYSLSSVVTVPSSSLGTQTYICNVNHKPSNTKVDKRV[human IgG1 Fc left out]
light: QPVLTQSPSASGTPGQRVTISCSGSSSNIGSNYVYWYQQLPGTAPKLLIYKNNQRPSGVPDRFSGSKSGTAASLAISGLQSEDEADYYCAAWDDSLRGYVFGTGTKLTVLGQPKAAPSVTLFPPSSEELQANKATLVCLISDFYPGAVTVAWKADSSPVKAGVETTTPSKQSNNKYAASSYLSLTPEQWKSHRSYSCQVTHEGSTVEKTVAPTECS
modifications: MC-MMAE on cysteine thiols of reduced disulfide bonds, positions not given; reaction DAR 10:1 gives final DAR 5.72 (also made at 2.5:1 and 5:1); MC-MMAE on cysteine thiols of reduced disulfide bonds,
For B4, the CC50 in series [1] worked out at 16 nM.

Usually IC50 stands for the concentration that inhibits the measured activity by half. As usually defined, the EC50 is the concentration needed to bring the measured effect to its halfway point.

Values taken from US20200390902A1, “Antibody-Drug Conjugates Targeted at Human Aspartyl-(Asparaginyl)-B-Hydroxylase (HAAH)” (Panacea Pharmaceuticals, Inc., priority 2017, published 2020).
